The values that follow come from the RNAGym collection of RNA variant scans (doi:10.7554/elife.90254).

B1: OR4K15 (parent)
chain: GUUAACGGUCAUAGGCCAUGGAAACUAGGAGCACCAUUUCGCUGCCAGUGAAGAAAUGAACAAAGAAAAUCUGGGCCAGGCAGGCAUCAAAAGAAAUAGUCUUGCGCUCAACCAGAAAGUCUGUAAUCAUUUUAAGGGUA

The source gives no read counts; variants with many changes may rest on few reads.

Variants of B1 are the subject of this series. Kind of series: self-cleavage, relative activity (ratio to wild type); higher = more cleavage; in vitro, sequencing; the parent is a self-cleaving ribozyme.
With U37C U39C U103C A111U G137A, the self-cleavage worked out at 0.22.
The figure for A36G G73A A116G A118G U124A is 0.01; for U37C U38G A60G A68G it is 1.11; for A36G A78U C107U A125G it is 0.01.
The figure for A36G A55U A94G is 1.62; for A36G U43C C61G it is 1.43.
The value for A36G A51G U122C was 1.96; that for U37C A55G A111G was 0.03; that for U37C A47U U57C U100C was 0.72.
Consider A36U A51G A62U A94C A116G, for which the self-cleavage was 0.37.
With A36U A59U A67G, the self-cleavage worked out at 0.65.
The figure for A33U A55G A98G U103C A110G is 0.02; for U37G A66C U72A U97C it is 0.1.
The value for A36U A59G U100A was 0.73; that for A36U U37C A60G U87C was 0.33; that for U37C A55G A68G was 1.61.
The value for U37C U39A A51U was 0.93; that for A36C U39C A52G A126G was 0.94.
For U37C C45A A51G A95G A117G, the self-cleavage was 1.33.
With U37C A111G U120A, the self-cleavage is 0.02.
The figure for A36G A51U A68G is 1.39.
The figure for U37C A59G U87A U103C is 0.49; for U37G A69G U102C U108C C109U it is 0.02.
Take U37C A56G C113A: the self-cleavage amounted to 0.01.
Turning to U37C A62G U100C, the self-cleavage was found to be 1.1.
The figure for A36G A54G A95G A129U U130C is 1.69; for A36G A69G A111G A116U A118U it is 0; for A33U A55G A90G U120C it is 0.55.
The value for A36G U38C U70C A117G was 1.43; that for U37C A59U U72C A111G U132C was 0.
The value for U37C A54G A60G G75C G136A was 0.16.
For A36G A62G A110G A117G, the self-cleavage worked out at 0.17.
The value for A36U A110G A117C was 0.06.
Regarding C34U A56U A111G U132C, the self-cleavage turned out to be 0.02.
The figure for U37G U38C A125G A134G is 0.86; for U37C A52G A67G A68G it is 1.97.
The value for U37C A95G A96G was 0.96.
Regarding U37C U43G U103C, the self-cleavage amounted to 1.22.
The value for A36U A92U C107A was 0.
On to A36U A47U U100C C109U, for which the self-cleavage is 0.68.
The value for U37C A55G U70A was 0.54; that for U37A A78G U120A was 0.21; that for C35U A63G A69C A90G was 1.24.
The value for U37C A63C A68G A82G A116U was 0.05; that for A36U U122C U132C was 1.54.
The value for A36G A126G U139C A140G was 0.43; that for C34A A78U A92G was 0.64; that for U37C A62U A67U A114U was 0.23.
As for U38A A51G A98U, the self-cleavage turned out to be 1.9.
Turning to A36G A89U A95G G104A, the self-cleavage is 0.28.
The value for A36U A82G U87C was 0.62; that for A36G U37C U39A U102A was 0.87; that for A36G A47C C81U was 0.32.
The value for A33U A90G A114G was 0.11; that for U37C U87C A96G A126G was 1.99.
Regarding U37C A90U G123A, the self-cleavage was found to be 1.64.
A33U U49C A55G A56G A117G: the self-cleavage turned out to be 1.57.
The figure for U37C U39A A66G A90G is 1.12; for C34U A56G U103A it is 0.16; for U37C U72C A98G A114G it is 2.25.
The value for U37C U97A A98G U127C A129G was 0.31; that for U37C A62G A91G was 1.55; that for A36U A60G U103C A110G G136A was 0.1.
With A36G U43C A96G U108C, the self-cleavage came to 0.
The figure for U37C U49C A60G A95G U102A A125U A129G is 0.61; for A36U A52G U70C it is 0.36; for U37A A54G A129G it is 1.22.
On to U37C A51G A78G A82U C113U, for which the self-cleavage stood at 0.03.
The figure for A36G A55G A94G A98G is 1.57.
The figure for A36G A82U A86G A94G A98G C105A is 0.01; for A36U U37C G119U it is 1.38.
The value for A33U A52G A56G was 2.23; that for U37C A110G C113U G138A was 0.03.
On to U37C A62G A69G A95G, for which the self-cleavage was 1.54.
The value for U37C A54G A56G A63G A96G was 0.52; that for A36U A86G A89G was 0.63.
On to C34U A92U A95C U108C, for which the self-cleavage is 0.02.
For U37C U87C A96G U100C, the self-cleavage is 1.18.
As to A33U U37C A56G C61U A95G U131A, the self-cleavage turned out to be 1.71.
As to C35A A129G A135G, the self-cleavage was 0.49.
In the case of A36G U37C A56G A126U, the self-cleavage was 1.43.
In the case of A33U A52G A94G, the self-cleavage is 2.24.
For the variant U37A A52G A59U U108A, the self-cleavage came out at 0.
U37C U70C U103C A129U U131G: the self-cleavage came to 0.14.
The value for U37A U72A A96G was 0.08; that for U37C U43C U103C A111G was 0.01; that for A36U A114G A134U was 0.44.
Take A36U A54G A86G: the self-cleavage worked out at 2.52.
The figure for A33U G75A A91G is 0.1; for U37C A64G A118G it is 1.14; for A36G A90G A116G it is 0.16.
On to U37C G84U A89G A116G U122C, for which the self-cleavage turned out to be 0.05.
The value for U37C U43C A69G U87A was 1.3; that for U37C U38A U130C A140G was 0.93; that for U37G A59G U97C was 0.64.
U38A A51G C101A C128A: the self-cleavage came out at 0.07.
The figure for A33U A78U A90G A140U is 0.1; for U37C U49A G73A it is 0.1.
With U37C A47G A67G A95G, the self-cleavage came to 1.68.
The figure for U38A A47G A92U A125C G136A is 0.85; for A36C A59U A62G A118G it is 1.08; for A36G U39A A62G A63G A78G it is 0.34.
For the variant A36G A89G A96G A110C, the self-cleavage is 0.11.
The value for A36U G41A G74C A91G U100C was 0.24; that for U37C A56G U72C was 0.25; that for A36G C85U U122C was 0.91.
The value for A33U U39C A66G U108C was 0.03.
The value for C35A A54G A60G A66G A69G was 0.63; that for A33U A91U A118G U122C was 1.9.
On to C34U A47U U108C, for which the self-cleavage turned out to be 0.
With A33U G58A U100A, the self-cleavage came out at 0.39.
The value for U37C U103C U122G was 1.46; that for U37C U97A U100C A126G U132A was 1.64.
For the variant U37C A68U A110G U124A, the self-cleavage amounted to 0.03.
As to A33U A96G U102A A135G, the self-cleavage stood at 0.18.
For A33U A92U U108C, the self-cleavage was found to be 0.01.
Consider A36U A56G A114G A126G, for which the self-cleavage amounted to 0.02.
The value for U37C U39C A98G U122C was 0.8; that for A36G A56G A64U was 1.33.
Turning to A36U U70C U102C, the self-cleavage amounted to 1.39.
The value for A36G A86G A92G was 0.87; that for A36U A47G A94G U130C was 0.65.
Regarding A36G A55G A129G, the self-cleavage was 1.12.
On to A36G G48A A95G A126U U127C, for which the self-cleavage turned out to be 1.38.
The figure for U37C A52G A56G is 0.34; for U37A U122C U130G it is 1.01.
As for U37C A92G C112U, the self-cleavage is 0.02.
The value for A33U U70C A92G U132C was 0.21; that for U37C A66G A126U U131C was 1.25; that for U37C A94G U132C was 1.73.
The figure for A36U A66G A68G A91G A116G C121A is 0.52.
The figure for C34G C105U U139G is 0.29.
In the case of U37C U39C U87C, the self-cleavage worked out at 1.43.
Consider A33U U38A A63G U72A, for which the self-cleavage was determined as 0.69.
The value for U37C A118U A134G was 0.22.
In the case of U37C A82U C105U, the self-cleavage came to 0.16.
The value for C35U A60U G75A A116U was 0.03; that for A36G A52U A118G was 1.29.
For A36G A60G A116G, the self-cleavage is 0.94.
Regarding A36U A69G G75A, the self-cleavage came out at 0.09.
The figure for U37C A95G A114G A117G is 0.98; for U37C A60G A90G U103C it is 0.24.
The value for U37C U49C A118G A126G U139C was 1.07.
The value for A36U A59G A64G was 1.89; that for U37G G41A A60G A64G A95G was 0.82; that for A33U A52G A56G A63U G73A U131C A134G was 0.1.
Regarding A33U A52G A125G, the self-cleavage came to 0.36.
The value for A36G A86G A134U was 1.71; that for A36G A68U A117G A134G was 1.98; that for A36U A66U U131C was 1.33.
The figure for C34G A56G U87C U130C is 1.02.
As for A36G A92G U103A, the self-cleavage was 0.51.
Take U37C A56G U57C U130C: the self-cleavage worked out at 1.29.
The figure for U37C A66U U100A is 0.25.
Take A36U A54G U57A A59G U97C U122G: the self-cleavage stood at 1.87.
Consider A36G A54G U127C, for which the self-cleavage was found to be 1.08.
The value for U37C C76A U124C was 0.13; that for U37C U57C A96G was 1.27; that for U37C A96G A140G was 1.62.
Take C34U A60G A82G: the self-cleavage is 0.68.
With U37G A52G A82G, the self-cleavage amounted to 0.14.
Turning to U37C U100C A129G, the self-cleavage was 2.38.
Take A36G A56G G79U: the self-cleavage is 0.12.
In the case of A33U A89U U108C A111G A116G, the self-cleavage came out at 0.01.
The figure for C34U A36U A67G C107A is 0.03.
The value for U37C A67G U108C was 0.01; that for U37C A66G A118G was 0.59.
